Laboratory results as given in ChEMBL document CHEMBL4888484, “Replenishing the malaria drug discovery pipeline: Screening and hit evaluation of the MMV Hit Generation Library 1 (HGL1) against asexual blood stage Plasmodium falciparum ,using a nano luciferase reporter read-out” (2022).
The whole screen tested about 150,000 compounds, of which about 540 (0.36%) showed an effect of 50% or more. This is one part of the list.

Each molecule was assayed on Plasmodium falciparum (assay: Primary screen in NF54 nanoGlo assay, in single point, at 2uM, 72h; a lower Z score goes with more inhibition). Details: timepoint 72 hour.
Format: functional, Erythrocyte

Row | SMILES | % Inhibition | Z score
1 | CC(=O)Nc1cccc(NC(=O)C[C@@H]2NC(=O)N(Cc3ccccc3Cl)C2=O)c1 | 11% | -1.47
2 | Fc1ccc(CCn2nnnc2N2CCCOCC2)cc1 | 3% | -0.54
3 | CC[C@H]1C(=O)N(C)CCN1c1ccc(-c2nc(C(C)C)no2)cn1 | -10% | 1.21
4 | C[C@@H](c1nccs1)N1C(=O)c2cccc(N3CCN(CCCc4ccccc4)CC3)c2C1=O | -4% | 0.62
5 | CCn1cc(S(=O)(=O)N2CC(N(CCOC)CCOC)C2)cn1 | -2% | 0.23
6 | CCC(NC(=O)N1CCCC(c2nn(-c3ccccc3)cc2C(N)=O)C1)C1CC1 (centres undefined) | -7% | 1.28
7 | Cc1ncc2c(c1-c1noc(-c3c[nH]c(-c4ccccc4)n3)n1)CCNC2 | -1% | 0.18
8 | Cn1nc(C2CC2)cc1NC(=O)NCCN1CCNC1=O | -18% | 2.86
9 | Cc1csc(CNC(=O)Nc2cccc3c2OC(C)(C)C3)n1 | 1% | -0.12
10 | Cc1ccc2[nH]c(-c3ccccc3NC(=O)c3cccs3)nc2c1 | -3% | 0.64
11 | CNc1nc(C(=O)N2CCCN(CC3CC3)[C@H](C(C)C)C2)cs1 | -8% | 1.47
12 | O=C(CN1CCN(Cc2nc(-c3ccccc3)co2)CC1)NCC1CCC1 | 4% | -0.52
13 | Cn1cc([C@H](CO)NCC23CCC(CC2)C3)cn1 | -5% | 0.83
14 | CC(OC1CCCCC1)C(=O)NOC1CCCCO1 (centres undefined) | -2% | 0.2
15 | Cc1cc(C(=O)NCC2CCN(c3cnccn3)CC2)c(C)o1 | -7% | 1.1
16 | O=C(N[C@H]1CCc2nccn2C1)c1cc2c(s1)CCC2 | -3% | 0.49
17 | CN(Cc1ccccc1)S(=O)(=O)c1ccc(-c2ccc(=O)[nH]n2)o1 | 2% | -0.24
18 | CN1CC[C@@H](C(=O)NCCc2cc(C(F)(F)F)ccn2)S1(=O)=O | -7% | 1.02
19 | O=C(Nc1ccccc1)C1CCN(Cc2cccc3nccn23)CC1 | -6% | 0.63
20 | Cc1cccc(CNC[C@H]2Cn3c(-c4ccc(Cl)cc4)cnc3CO2)n1 | 8% | -0.92
21 | CC(C)n1c([C@H]2CCN(C(=O)Cc3ccccc3F)C2)nc2ccncc21 | -9% | 0.86

Row | SMILES | % Inhibition | Z score
22 | Cc1n[nH]c([C@@H]2CCN(C(=O)C3CCOCC3)CCN2Cc2cccnc2)n1 | -9% | 1.32
23 | C[C@@H]1[C@@H](c2cccc(Cl)c2)OCCN1C(=O)NC1CC2CCCCN2C1=O (some centres undefined) | -3% | 0.45
24 | O=C(Nc1cc(S(=O)(=O)N2CCCC2)ccc1O)c1n[nH]c2ccccc12 | -18% | 2.81
25 | Cc1nsc(NCCCn2ccnc2C)c1C#N | -4% | 0.48
26 | Cc1noc([C@@H]2CN(C(=O)C3CCC3)CCCN2C(=O)c2ccccc2)n1 | -7% | 1.37
27 | COc1ccc(C2CC(=O)N(c3ccc4c(c3)OCCO4)C(=O)C2)cc1 | -11% | 1.95
28 | Cc1ccc2[nH]cc([C@H](c3ccccc3)c3ccc(C)s3)c2c1 | -7% | 1.06
29 | COc1ccc(CN2C(=O)N[C@@H](CC(=O)N3CCOCC3)C2=O)cc1 | -6% | 0.82
30 | COc1ccc(OC)c(NC(=O)CN2C(=O)COc3ccc(C(=O)N4CCCC4)cc32)c1 | 0% | -0.05
31 | CCN(CC)C(=O)c1cnc2snc(C)c2c1N1CCC(C(=O)Nc2c(C)cc(C)cc2C)CC1 | 54% | -10.3
32 | CCOC(=O)Cc1csc(NC(=O)c2cc(-c3csc(C)n3)c[nH]2)n1 | -5% | 0.86
33 | COc1c(F)c(F)c(CN2CCOC2=O)c(F)c1F | -14% | 1.77
34 | COc1ccccc1NC(=O)COc1ccc(-c2ccccc2)cc1CN1CCC(c2nncn2C)CC1 | -12% | 1.31
35 | C=C(C)C[C@H](C)C(=O)Nc1cnn(C)c1Cl | -17% | 2.14
36 | O=C(Cn1cncn1)N1CCC(c2nnc(C(F)(F)F)o2)CC1 | -10% | 1.18
37 | Cc1cccc(C(=O)N2CCC[C@H]2C(=O)Nc2ccc(Cl)cc2Cl)n1 | 23% | -2.92
38 | COCCN(CCNC(=O)N1CCCCCC1)C1CC1 | -6% | 0.54
39 | CCCC(=O)Nc1ccc(C(F)(F)F)cc1Cl | 0% | 0.06
40 | Cc1nnc(-c2ccccc2NC(=O)C(=O)NC2CCCCC2)o1 | -4% | 0.51
41 | Cc1nonc1[C@@H]1CCCN1C(=O)CCc1c(C)nn(C)c1C | 3% | -0.46
42 | C=CCN(Cc1nc(-c2cc(OC)c3c(c2)OCO3)oc1C)[C@H]1CCS(=O)(=O)C1 | 0% | -0.05
